Test results reported in patent US20100196361A1, “Method of inhibition of vascular development using an antibody” (DYAX CORP., priority 2003, published 2010).

Columns and labels:
[1] = tested on: mouse hematopoietic system; test: In vivo myeloablation model (5-FU); conditions: 5-FU on day 0; days 2 to 14
Experimental: The effect of the E3 anti-Tie1 antibody DX-2240 on the recovery of the mouse hematopoietic system using an in vivo myeloablation model was evaluated. Mice were injected with 5-FU on day 0 and then received either DX-2240 or a negative control antibody. At various time points following injection (days 2, 4, 6, 8, 10, 12 and 14), 4 mice were sacrificed from control and treated groups and peripheral blood and femurs were harvested. The peripheral blood and femoral cells were analyzed to determine the following: • Total nucleated cells per femur • Frequency of bone marrow colony forming cells for both myeloid and erythroid progenitors • Total hematopoietic CFC per femur • Total megakaryocytic CFC per femur • Total white blood cell count and differential analysis of mature cells

[2] = SEC-HPLC analysis of plasma samples (in vivo stability); design: species or system mouse; conditions: plasma samples at 0 min, 30 min, 90 min, 24 h and 72 h
Experimental: In addition, SEC-HPLC analysis of plasma samples to assess the in vivo stability of DX-2240 was performed. Instability of DX-2240 in mouse could have contributed to the fast clearance of this compound from the serum. SEC-HPLC analysis was performed for two plasma samples at time points at 0 min, 30 min, 90 min, 24 h and 72 h. […] Therefore, the relatively rapid half-life of DX-2240 in mice is not due to degradation of this compound.

[3] = tested on: human LNM35 lung cancer xenografts; test: LNM35 lung cancer xenograft in nude mice; type: in vivo, mouse
Experimental: The effect of DX-2220 on tumor growth in mice bearing human LNM35 lung cancer xenografts was tested. For these studies, LNM35 cells were injected subcutaneously in the lateral thorax of athymic nude mice. Four days after tumor cell implantation, treatment was initiated with DX-2220 or A2-SV (negative control antibody) at a dosage of 20 mg/kg, three times a week. Tumor sizes were measured at day 6, 8 and 10 post antibody treatment.
(§1) In addition to the in vivo studies presented above, four additional mouse xenografts studies were performed. These studies were conducted either according to the protocols used in the SW-480 or LNM35 study.
(§2) The anti-Tie1 antibody was also evaluated for its effect on implanted tumors. Tumor cells were injected subcutaneously into the abdominal region of mice (Balb/C nu/nu female mice, 5-6 weeks old). The following tumor cells were tested: a lung carcinoma (mouse syngeneic Lewis lung carcinoma (LLC)); human lung carcinoma LNM35; an aggressive human colon carcinoma clone (SW480R). Treatments with anti-Tie1 antibody were initiated 4-6 days post-implantation. The anti-Tie1 antibodies or a control antibody (the A2 anti-streptavidin antibody) were administered intraperitoneally at 20 mg/kg every second day. Tumor volume was measured every second day and calculated as 0.5×height×width×depth.

[4] = tested on: human myeloid and erythroid progenitors and megakaryocyte progenitors; test: In vitro colony assays of hematopoietic progenitors; type: cell-based; conditions: methylcellulose- and collagen-based assays; concentrations up to 100 μg/ml
Experimental: The effect of anti-Tie1 antibodies (DX-2220 and DX-2240) on human myeloid and erythroid progenitors was evaluated using methylcellulose-based in vitro colony assays and megakaryocyte progenitors using collagen-based in vitro assays.

[5] = tested on: human colon carcinoma clone (SW480R); test: SW480R tumor model in mice; type: in vivo, mouse; conditions: 20 mg/kg i.p. every second day
Experimental: as §2

[6] = tested on: LLC (mouse lung carcinoma); test: LLC tumor model in mice; type: in vivo; conditions: 20 mg/kg i.p. every second day; p=0.078
Experimental: as §1, §2

[7] = Pharmacokinetics and biodistribution of 125I-labeled antibody in mice; type: in vivo, mouse
Experimental: The in vivo pharmacokinetics and stability of DX-2240 (produced in HEK293T cells) was determined by iodinating the protein on available tyrosine residues and measuring plasma clearance and stability in mice after a single intravenous dose. Samples were radio-iodinated by the indirect method using the IODO-GEN™ reagent (method from Pierce, and described by Chizzonite et al. ((1991) J. Immunol. 147:1548; (1992) J. Immunol. 148: 3117). Samples were incubated with the ^125I-NaI solution for 9 min at which time tyrosine (10 mg/mL, a saturated solution) was added to quench the reaction. After about 15 min a 5 μl aliquot was removed as a standard for counting. For each labeling reaction, the ^125I-labeled material (approx. 0.6 mL) was purified using a single 5 mL D-salt 1800 polyacrylamide column (Pierce). Columns were washed with 25 mM Tris, 0.4 M NaCl, pH 7.5 containing 2.5% HSA to block nonspecific sites then extensively with the same buffer minus the HSA. Samples were applied in and columns were eluted with a series of 0.3 mL aliquots. Recovery of applied activity in all protein fractions was >75% and the total recovery of applied activity was >90%. The fractions containing peak levels of labeled protein were pooled for animal injections. To prepare the injectate, the pool was diluted with Tris buffer (pH 7.5) so that the 100 μl injection volume contained about 10 μg of labeled material.
Solutions containing the radio-labeled compounds were administered to all mice by injection into the tail vein. At predetermined times post-administration animals were sacrificed and blood samples were taken for analyses. Time points tested after injection of radio-labeled compounds were: approximately 0, 7, 15, 30 and 90 minutes, 4 h, 8 h, 16 h, 24 h, 48 h and 72 h after injection. Four animals were sacrificed for each time point. At sacrifice, 0.5 mL aliquots of blood were collected into anticoagulant (0.02 mL EDTA) tubes. Plasma was separated from cells by centrifugation and the plasma fraction was divided into two aliquots, one frozen and one stored at 4° C. for immediate analysis.
Analyses included gamma counting of all samples. […] DX-2240, due to its interaction with Tie1 on the surface of endothelial cells, may accumulate in areas of high vascularization such as the lung. Therefore, multiple administrations of DX-2240 may be required to achieve an effective steady-state level of this antibody in the serum of mice. ELISA on ocular bleeds following three every other day dosings, as well as terminal bleed samples from tumor-bearing mice treated with DX-2220, were performed.

B1: DX-2240: germlined f allotyped E3 antibody; light chain SEQ ID NO:724, heavy chain SEQ ID NO:723 (antibody)
heavy: EVQLLESGGGLVQPGGSLRLSCAASGFTFSMYGMVWVRQAPGKGLEWVSVISPSGGNTGYADSVKGRFTISRDNSKNTLYLQMNSLRAEDTAVYYCARAPRGYSYGYYYWGQGTLVTVSSASTKGPSVFPLAPSSKSTSGGTAALGCLVKDYFPEPVTVSWNSGALTSGVHTFPAVLQSSGLYSLSSVVTVPSSSLGTQTYICNVNHKPSNTKVDKRV[left out - human IgG1 Fc]
light: DIQMTQSPSSLSASVGDRVTITCRASQGIGHYLAWYQQKPGKVPKLLIYTASTLQSGVPSRFSGSGSGTDFTLTISSLQPEDVATYYCQQFNSYPHTFGQGTRLEIKRTVAAPSVFIFPPSDEQLKSGTASVVCLLNNFYPREAKVQWKVDNALQSGNSQESVTEQDSKDSTYSLSSTLTLSKADYEKHKVYACEVTHQGLSSPVTKSFNRGEC
modifications: Synthetically generated peptide
[1]
  recovery of the mouse hematopoietic system: no effect on the recovery of the mouse hematopoietic system following 5-FU administration
[2]
  in vivo stability: stable in vivo both to degradation and to interactions with plasma components
[3]; 20 mg/kg i.p. every second day, one study, most responsive
  inhibition of primary tumor growth: 60%
[3]; doubled antibody dose, administration only twice a week
  effect on primary tumor growth: only a modest effect on primary tumor growth
[4]
  inhibition of colony formation: Neither DX-2220 nor DX-2240 inhibited colony formation
[5]
  response of tumor to antibody treatment: not responsive
[6]
  inhibition of primary tumor growth: ~20%
[7]; 30 minutes after i.v. dose
  accumulation in heart: 4.04 % ID/g
  accumulation in kidney: 8.34 % ID/g
  accumulation in liver: 5.42 % ID/g
  accumulation in lungs: 12.85 % ID/g
  accumulation in spleen: 7.44 % ID/g
[7]; single intravenous dose, about 10 μg 125I-labeled antibody
  half-life in mice: less than 5 hours
